# Experimental data: PMC3366979
# Protein sequences, listed by entry. Tags and fused reporters are not part of them. Lines headed by an entry give the natural chain unless they say otherwise; changes in a name come on top. Chains listed by the source or under a name are the forms on record and can include a tag or linker.
# UniProt P62136: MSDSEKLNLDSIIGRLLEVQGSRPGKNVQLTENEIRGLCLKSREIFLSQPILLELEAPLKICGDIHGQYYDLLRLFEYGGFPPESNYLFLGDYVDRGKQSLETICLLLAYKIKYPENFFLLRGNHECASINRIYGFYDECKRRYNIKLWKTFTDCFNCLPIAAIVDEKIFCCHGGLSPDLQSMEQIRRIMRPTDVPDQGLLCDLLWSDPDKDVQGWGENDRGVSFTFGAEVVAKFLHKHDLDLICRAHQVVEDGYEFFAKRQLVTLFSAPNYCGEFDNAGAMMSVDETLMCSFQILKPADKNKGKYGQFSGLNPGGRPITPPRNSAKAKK
# IL2-0 (IL2 construct lacking PC1 sequence) (P01589, form named): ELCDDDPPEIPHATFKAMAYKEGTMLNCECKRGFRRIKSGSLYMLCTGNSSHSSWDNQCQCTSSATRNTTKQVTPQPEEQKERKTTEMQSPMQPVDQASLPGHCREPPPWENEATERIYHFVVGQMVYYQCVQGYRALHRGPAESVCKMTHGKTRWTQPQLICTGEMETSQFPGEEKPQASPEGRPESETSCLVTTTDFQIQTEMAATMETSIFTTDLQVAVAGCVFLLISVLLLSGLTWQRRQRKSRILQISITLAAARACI
# Results are given in words; binding and its absence hold for the method and conditions named. Binding seen in cells or lysates may run through a third protein. Some binding calls cover weakened binding; strength is not graded here. Where a sequence is shown, tags or fusion partners need not be part of it.
# T1: sIg-HT193 (C-terminal, cytosolic 193 amino acids of PC1 fused to the membrane targeting cassette sIg.7) (mouse) (UniProt O08852)
# T1 sequence: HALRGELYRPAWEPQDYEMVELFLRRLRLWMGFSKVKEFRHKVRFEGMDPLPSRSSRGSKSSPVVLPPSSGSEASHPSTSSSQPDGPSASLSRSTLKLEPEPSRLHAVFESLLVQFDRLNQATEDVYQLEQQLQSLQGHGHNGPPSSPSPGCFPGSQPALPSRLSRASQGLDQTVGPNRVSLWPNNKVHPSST
# Molecular target: T1, sIg-HT193 (C-terminal, cytosolic 193 amino acids of PC1 fused to the membrane targeting cassette sIg.7) (mouse)
# Test: co-IP; 293T cells co-transfected with HA-PP1α and sIg constructs; lysates precipitated with protein A/G+ agarose to pull down the sIg constructs; blot with anti-HA
row,binding,Molecule
1,binds,HA epitope-tagged protein phosphatase-1α (from UniProt P62136 1-330) (enzyme)

# Molecular target: HA epitope-tagged protein phosphatase-1α (UniProt P62136)
# Test: co-IP; 293T cells co-transfected with HA-PP1α and IL2 fusion proteins; lysates (150 mM NaCl, 1% Triton X-100, 0.5% NP40) precipitated with agarose-conjugated anti-HA (F-7), 2 h, 4°C; washed six times with 300 mM NaCl; blot with anti-IL2 antibodies
row,binding,Molecule
1,no binding,IL2-0 (IL2 construct lacking PC1 sequence) (from UniProt P01589 22-269)
2,binds,"IL2-HT193 (C-terminal, cytosolic 193 amino acids of mouse polycystin-1 fused to the extracellular and transmembrane portion of the IL2 receptor) (domain or fragment, UniProt O08852 4101-4293) HALRGELYRPAWEPQDYEMVELFLRRLRLWMGFSKVKEFRHKVRFEGMDPLPSRSSRGSKSSPVVLPPSSGSEASHPSTSSSQPDGPSASLSRSTLKLEPEPSRLHAVFESLLVQFDRLNQATEDVYQLEQQLQSLQGHGHNGPPSSPSPGCFPGSQPALPSRLSRASQGLDQTVGPNRVSLWPNNKVHPSST"
3,binds,"IL2-AT120 (membrane distal 120 amino acids of the C-terminal tail of PC1 fused to the IL2 receptor portion) (domain or fragment, UniProt O08852 4174-4293) ASHPSTSSSQPDGPSASLSRSTLKLEPEPSRLHAVFESLLVQFDRLNQATEDVYQLEQQLQSLQGHGHNGPPSSPSPGCFPGSQPALPSRLSRASQGLDQTVGPNRVSLWPNNKVHPSST"
4,binds weakly,"IL2-HA74 (membrane proximal 74 amino acids of the C-terminal tail of PC1 fused to the IL2 receptor portion) (domain or fragment, UniProt O08852 4101-4174) HALRGELYRPAWEPQDYEMVELFLRRLRLWMGFSKVKEFRHKVRFEGMDPLPSRSSRGSKSSPVVLPPSSGSEA"
5,binds,"IL2-HT193 V4143A (domain or fragment, UniProt O08852 4101-4293) HALRGELYRPAWEPQDYEMVELFLRRLRLWMGFSKVKEFRHKARFEGMDPLPSRSSRGSKSSPVVLPPSSGSEASHPSTSSSQPDGPSASLSRSTLKLEPEPSRLHAVFESLLVQFDRLNQATEDVYQLEQQLQSLQGHGHNGPPSSPSPGCFPGSQPALPSRLSRASQGLDQTVGPNRVSLWPNNKVHPSST"
6,binds,"IL2-HT193 F4145A (domain or fragment, UniProt O08852 4101-4293) HALRGELYRPAWEPQDYEMVELFLRRLRLWMGFSKVKEFRHKVRAEGMDPLPSRSSRGSKSSPVVLPPSSGSEASHPSTSSSQPDGPSASLSRSTLKLEPEPSRLHAVFESLLVQFDRLNQATEDVYQLEQQLQSLQGHGHNGPPSSPSPGCFPGSQPALPSRLSRASQGLDQTVGPNRVSLWPNNKVHPSST"
